From PubChem BioAssay AID2676 (National Center for Advancing Translational Sciences (NCATS), 2010)
Hit rate of the full screen: of about 370,000 compounds, about 1,100 (0.3%) were called active. The inconclusive results got no clear call from the source; some entries with a clear call stand among them for comparison. The call rests on the fitted dose curve; in most records, active means well fitted activation curve with a large enough effect; inconclusive means small, poorly fitted or top-dose-only effect; inactive means flat fitted curve, though single readings scatter. Potencies of inconclusive entries are doubtful fits and often do not repeat.

Molecular target: Relaxin receptor 1 (Homo sapiens) (UniProt Q9HBX9)
Sequence of UniProt Q9HBX9 (Q9HBX9 whole entry, looked up): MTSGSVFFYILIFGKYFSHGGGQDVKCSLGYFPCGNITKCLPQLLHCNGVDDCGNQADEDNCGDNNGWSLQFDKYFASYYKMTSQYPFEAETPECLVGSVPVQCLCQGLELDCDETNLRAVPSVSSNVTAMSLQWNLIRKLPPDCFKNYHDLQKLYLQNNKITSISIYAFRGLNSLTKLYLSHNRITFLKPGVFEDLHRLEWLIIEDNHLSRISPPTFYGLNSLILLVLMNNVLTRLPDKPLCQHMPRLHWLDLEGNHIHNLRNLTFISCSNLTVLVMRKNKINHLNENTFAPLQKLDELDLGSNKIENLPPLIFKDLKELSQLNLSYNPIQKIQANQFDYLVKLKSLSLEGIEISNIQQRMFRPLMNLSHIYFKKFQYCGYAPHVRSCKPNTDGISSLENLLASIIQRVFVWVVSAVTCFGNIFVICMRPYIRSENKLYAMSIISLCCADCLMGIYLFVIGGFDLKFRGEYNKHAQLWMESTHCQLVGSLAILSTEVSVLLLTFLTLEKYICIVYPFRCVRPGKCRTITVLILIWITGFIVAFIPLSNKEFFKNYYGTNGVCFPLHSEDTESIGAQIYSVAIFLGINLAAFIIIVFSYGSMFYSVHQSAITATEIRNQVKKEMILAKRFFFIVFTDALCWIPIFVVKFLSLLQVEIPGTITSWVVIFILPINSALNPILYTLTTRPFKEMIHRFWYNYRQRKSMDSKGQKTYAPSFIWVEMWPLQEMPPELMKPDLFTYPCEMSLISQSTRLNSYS
Assay: qHTS Assay for Agonists of the Relaxin Receptor RXFP1; further: nearly all actives have a fitted effect of over 60% in size
Conditions: HEK293T-RXFP1 cAMP TR-FRET, 30 min; series mostly up to 57.5 µM; activation: at the top concentration
Outline: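 Agonist response is measured as cAMP accumulation in an RXFP1-transfected HEK293T line under PDE4 inhibition. Values are scaled between buffer-only and 29 nM porcine relaxin, and EC50s come from standard Hill equation fits.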
On the % scale 0 is the no-effect control and ±100 the full control effect; potency means the concentration at half of the fitted maximal effect; tags describe the fitted curve by direction and shape.

Potency, inconclusive:
Cc1ccc(NC(=O)c2cc(-c3cccs3)nc3ccccc23)c(C)c1 35.5 µM [activator, single point]
COc1cc(NC(=O)c2ccc(-c3ccc(Br)cc3)o2)ccc1NC(=O)C(C)C 35.5 µM [activator, single point]
Cc1ccc(-c2nc(SCC(=O)Nc3cc(C)on3)c3c(=O)n(C)c(=O)n(C)c3n2)cc1 39.8 µM [activator, single point]
COc1cccc(NC(=O)CN(C)S(=O)(=O)c2ccc3c(c2)n(C)c(=O)c(=O)n3C)c1 35.5 µM [activator, single point]
Cc1cnn(C(=O)c2cc(-c3ccccn3)nc3ccc(Cl)cc23)c1 39.8 µM [activator, single point]
COc1ccc(C(=O)Nc2ccc(N3CCN(c4ccc(OC)cc4)CC3)c(C#N)c2)cc1 2.82 µM [activator, full curve]
CC(=O)c1ccc(NC(=O)CSc2nnc(-c3ccncc3)n2C2CC2)cc1 39.8 µM [activator, single point]
NS(=O)(=O)c1ccc(CCNC(=O)CCn2c(=O)c3cccn3c3cccnc32)cc1 39.8 µM [activator, single point]
CCOC(=O)/C(C#N)=C/c1ccc(OCC(=O)Nc2ccccc2)c(OC)c1 39.8 µM [activator, single point]
Cn1c(C(=O)Nc2cccc(Cl)c2)cc2c(=O)n(C)c3ccccc3c21 31.6 µM [activator, single point]
Cc1ccc(CNc2nc3nc(C)c(Cl)c(C)n3n2)cc1 39.8 µM [activator, single point]
CCc1ccccc1NC(=O)CSc1nc2ccccc2nc1Cc1cccc(OC)c1 39.8 µM [activator, single point]
COC(=O)c1cc(NS(=O)(=O)c2cc(Br)cc3c2N(C(C)=O)CC3)cc(C(=O)OC)c1 15.8 µM [activator, partial curve]
COc1ccc(-c2cc3c(=O)n(CC(=O)NCc4ccccc4F)ncn3n2)cc1 11.2 µM [activator, partial curve]
NS(=O)(=O)c1ccc(NCc2c(F)cccc2Cl)cc1 39.8 µM [activator, single point]

activation, inactive:
CC(=O)c1cccc(OCc2cc(C(=O)N3CCSCC3)no2)c1 -0.373%
O=C(NCC(c1ccco1)S(=O)(=O)c1cccs1)c1ccc(C(F)(F)F)cc1 (configuration not stated) 6.36%
